# Assay results published in PubChem BioAssay AID602293 (National Center for Advancing Translational Sciences (NCATS), 2012).
# Screen size: about 1,300 compounds; about 30 (2%) were called active. Roughly 10% stayed inconclusive and do not appear here. Calls come from the whole dose curve; as a rule, active = well fitted inhibition curve with a large enough effect; inconclusive = small, poorly fitted or top-dose-only effect; inactive = flat fitted curve, though single readings scatter. This is one part of the list.
# Test: qHTS for antagonists of the Thyroid Stimulation Hormone Receptor: Hit Validation in HTRF Activity in a Luteinizing Hormone Receptor Cell Line
# Conditions: LHR-expressing cell line, cAMP HTRF, antagonist mode; series mostly up to 58 µM; activity change, negative = inhibition: at the top concentration
# In short: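 HEK 293 cells stably expressing LH receptor, in DMEM with 10% FCS and 100 uM RO 20-1724, incubated with compound 30 min at room temperature. cAMP measured by competitive HTRF (anti-cAMP cryptate vs cAMP-d2), excitation 330 nm, emissions 615 and 660 nm.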
# % is set by controls: 0 for no effect and ±100 for the full control effect; potency is the fitted concentration of half-maximal effect.
Compound,"activity change, negative = inhibition",Potency
Cc1ccc(-c2cn3cc(C)ccc3n2)cc1,inactive: 0.852%,
Cc1ccc(NS(=O)(=O)c2cc(C(=O)Nc3cccc([N+](=O)[O-])c3)ccc2C)cc1,inactive: -4.12%,
O=S(=O)(c1ccc(SCc2ccc(Cl)cc2)nc1)N1CCCC1,inactive: -7.02%,
COc1ccccc1CNc1ncnc2sccc12,inactive: -2.06%,
COc1ccc(OC)c(NC(=O)CSc2ncnc3c2cnn3-c2ccccc2Cl)c1,inactive: -8.87%,
COC(=O)[C@H]1[C@H]2C[C@@H]3c4[nH]c5cc(OC)ccc5c4CCN3C[C@H]2C[C@@H](OC(=O)/C=C/c2cc(OC)c(OC)c(OC)c2)[C@@H]1OC,inactive: 0.214%,
CCOC(=O)C1=C(C)Nc2ccccc2N=C1NC(=O)c1cc(C)on1,inactive: 1.59%,
COc1cc2ccccc2cc1C(=O)N1CCCC1,inactive: 3.1%,
COc1ccc(/C=C/C(=O)N2CCN(C)CC2)cc1OC,inactive: 2.37%,
CCN(CC)c1ccc(NC2=C(Cl)C(=O)c3ccccc3C2=O)cc1,inactive: -0.455%,
O=C(NCc1ccc2c(c1)OCO2)C12CN(Cc3ccccc3)CC1C(c1cccc([N+](=O)[O-])c1)=NO2 (stereo unspecified),inactive: -4.07%,
O=C(CSc1ccccn1)Nc1cccc2ccccc12,inactive: 0.417%,
O=C(NC1CCOc2ccccc21)c1ccccn1 (stereo unspecified),inactive: 1.33%,
COC(=O)CSc1nc(NCc2ccccc2)nc(N(C)C)n1,inactive: -1.27%,
Cc1ccc(S(=O)(=O)/N=C2/NC(=O)/C(=C\c3cc(Br)cc(Br)c3O)S2)cc1,inactive: -4.27%,
O=c1cc(C(F)(F)F)[nH]c2c(C(F)(F)F)cccc12,inactive: -3.14%,
Cc1c(C=O)c2ccccc2n1CCOc1ccccc1,inactive: -0.311%,
Cc1ccc(C)c(N2CCN(C(=O)C(Cc3ccccc3)n3cccc3)CC2)c1 (stereo unspecified),inactive: -3.11%,
CC(C)C(=O)Nc1c(-c2ccc(Cl)cc2)c(=O)c2ccccc2n1C,inactive: 0.128%,
COc1ccc(NS(=O)(=O)c2cccc(NC(=O)c3ccc(S(=O)(=O)N4CCCCCC4)cc3)c2)cc1,inactive: -0.628%,
CC(=O)C1=C(O)C(=O)N(c2ccc(O)cc2)C1c1cccc(F)c1 (stereo unspecified),inactive: 2.69%,
Cc1ccc(-c2cc(C(=O)Nc3ccncc3)c3ccccc3n2)cc1,inactive: -2.05%,
O=C1C(Cl)=C(Nc2ccc(O)cc2)C(=O)c2ccccc21,inactive: -6.39%,
CCn1nc(C)c(NC(=O)/C=C/c2ccc(OC)c(COc3ccc(Br)cc3)c2)c1C,inactive: -1.1%,
C/C(=N\NC(=O)c1nnn(-c2nonc2N)c1-c1ccc(Cl)c(Cl)c1)c1ccncc1,inactive: 1.95%,
Cc1cc(C)cc(OC(C)C(=O)NCCCn2ccnc2)c1 (stereo unspecified),inactive: 3.41%,

Compound,"activity change, negative = inhibition",Potency
Cc1cc(NC(=O)CC(C)C)c(=O)n(Cc2cccc(F)c2)c1,inactive: 3.16%,
Cc1c(C(=O)Nc2nccs2)sc2nc(-c3cccs3)cc(C(F)(F)F)c12,inactive: -0.565%,
O=C(Cn1ncc2c([nH]c3ccccc32)c1=O)NCC1CCN(Cc2ccc(F)cc2)CC1,inactive: 2.07%,
COc1ccccc1N1CCN(C(=O)CCC(=O)N2CCN(c3ccc(F)cc3)CC2)CC1,inactive: 0.964%,
Cc1cc(C)cc(C(=O)NC(CC(N)=O)c2ccc(NCCN3CCCC3)c([N+](=O)[O-])c2)c1 (stereo unspecified),inactive: 3.3%,
Cc1cccc2c1NC(=O)C2(c1ccc(O)cc1)c1ccc(O)cc1,inactive: -2.97%,
COc1ccc(NC(=O)c2ccc(-c3ccccc3)cc2)cc1NS(=O)(=O)c1ccc(F)cc1,inactive: -4.16%,
Cc1ccc(OCc2nnc(NC(=O)c3cccnc3)s2)cc1,inactive: 3.67%,
CCN(CCCNC(=O)Cn1ncc2c([nH]c3ccc(C)cc32)c1=O)c1cccc(C)c1,inactive: 1.03%,
CC1CCCCN1C(=O)CSCC(=O)Nc1nc(-c2cccs2)cs1 (stereo unspecified),inactive: -0.159%,
CC(NC(=O)c1cc(=O)[nH]c2ccccc12)c1ccc(F)cc1F (stereo unspecified),inactive: 3.66%,
COc1ccc(-c2csc3ncnc(N4CCN(S(=O)(=O)c5cccs5)CC4)c23)cc1,inactive: -2.53%,
CCSc1ncc(Cl)c(C(=O)Nc2ccccc2OC)n1,inactive: 3.38%,
Cc1ccc(CSc2nnc(SCC(=O)N/N=C/c3c(C)nn(-c4ccccc4)c3C)s2)cc1,inactive: -3.25%,
O=S(=O)(Nc1cccnc1)c1ccc(Br)c2ccccc12,inactive: -4.2%,
Cc1cc(C)n2nc(SCC(=O)Nc3ccccc3C)nc2n1,inactive: 3.58%,
COc1cc2cnc(-c3ccccc3)c(-c3ccc(C#N)cc3)c2cc1OC,inactive: -1.55%,
Cc1ccc(CNS(=O)(=O)c2ccc(CN3C(=O)c4cccnc4C3=O)s2)o1,inactive: 0.189%,
O=C(NCCC1=CCCCC1)C(=O)NCC1OCCCN1S(=O)(=O)c1cc(F)ccc1F (stereo unspecified),inactive: -0.628%,
CC1=C(C(=O)OCC(Cl)(Cl)Cl)N2C(=O)C(NC(=O)Cc3ccccc3)C2SC1 (stereo unspecified),inactive: -0.583%,
COc1ccc(-c2csc(NC(=O)c3ccccc3NS(=O)(=O)c3ccc(C)cc3)n2)cc1,inactive: -1.85%,
CN(c1ccc(OCC(=O)Nc2nc3ccccc3s2)cc1)S(=O)(=O)c1ccccc1,inactive: -7.48%,
Cc1ccc(C2(c3ccc(C)cc3)CC2C(=O)Nc2ccc([N+](=O)[O-])cc2O)cc1 (stereo unspecified),inactive: -0.67%,
CN(C)S(=O)(=O)N1CCN(c2ccnc3cc(Cl)ccc23)CC1,inactive: -1.73%,
COc1cccc(-c2nc(CS(=O)(=O)CC(=O)NC3CCCCCC3)c(C)o2)c1,inactive: -2.33%,
Cc1cc(C)c(C2=NOC3C4CCC(C4)C23)c(C)c1 (stereo unspecified),inactive: 1.14%,

Compound,"activity change, negative = inhibition",Potency
Cc1ccnc(OC(C(=O)O)C(OCCc2ccccc2)(c2ccccc2)c2ccccc2)n1 (stereo unspecified),inactive: 2.55%,
Cc1cc(NC(=O)c2cccc(S(=O)(=O)N3CCOCC3)c2)c2ccccc2n1,inactive: 1.54%,
CS(=O)(=O)N1CCc2cc(C(=O)Nc3ccc(COCC(F)(F)F)cc3)ccc21,inactive: 1.08%,
O=C(Nc1ccc([N+](=O)[O-])cc1Cl)c1cc(Cl)ccc1O,,inactive
O=S(=O)(/N=C(/Nc1cccc2ccccc12)c1ccccc1)c1cccs1,inactive: 1.61%,
C(=N\N1CCN(Cc2cccc3ccccc23)CC1)/c1cccnc1,inactive: -1.18%,
O=C(Nc1nnc(S(=O)(=O)N2CCCCCC2)s1)c1cccc(Br)c1,inactive: -1.72%,
CSCC[C@H](NC(=O)c1ccc(Cl)c(S(=O)(=O)N2CCCC2)c1)c1nc2ccccc2[nH]1,inactive: 0.364%,
Cc1cc(Cl)c(S(=O)(=O)N2CCSCC2)cc1OCC(=O)NC1CCCCC1,inactive: -6.33%,
CCCCn1c(-c2csc3c2CCCC3)n[nH]c1=S,inactive: 1.6%,
CC1CC(=O)N(c2ccc(C(C)C)cc2)C(=O)C1,inactive: 2.84%,
COc1ccc(NC(=O)Cn2nnc(C(=O)NCc3cccs3)c2N)c(OC)c1,inactive: 2.52%,
O=c1c2nncn2c2cccnc2n1CCNc1ncc(C(F)(F)F)cc1Cl,inactive: 2.15%,
Cc1ccc(Sc2ncccc2NC(=O)c2ccccc2Cl)cc1,inactive: 2.16%,
COc1ccc(CCNC(=O)c2cccc3c2C(=O)N(C2CCCCC2)C3)cc1OC,inactive: -1.29%,
COc1ccc2cc(/C=C3\SC(=S)NC3=O)c(N3CCOCC3)nc2c1,inactive: -2.49%,
COc1ccc(OC)c(CCNC(=O)Cn2nc(C)c3c(C)n(-c4ccc(C)cc4)nc3c2=O)c1,inactive: -2.32%,
COc1ccc(CNCc2cc(C)c(OC)cc2C)c(OC)c1,inactive: 2.83%,
CCOc1ccc(-n2c(SCC(=O)NC(C)CC)nc3n[nH]c(C)c3c2=N)cc1 (stereo unspecified),inactive: -2.18%,
O=S(=O)(Nc1cccnc1)c1ccc(C2CCCCC2)cc1,inactive: 1.64%,
O=C1S/C(=C\c2ccc(O)c([N+](=O)[O-])c2)C(=O)N1c1ccccc1Cl,inactive: 0.191%,
Cc1ccc(NC(=O)CSc2nn(-c3ccccc3)c(=S)s2)cc1S(=O)(=O)N(C)C,inactive: -4.13%,
CSc1ccccc1OCc1cc(C(=O)NC2CCc3ccccc32)no1 (stereo unspecified),inactive: 2.6%,
CSC1=NSC2=NC(=O)/C(=C\c3coc4ccccc4c3=O)C(=N)N12,inactive: 0.028%,
C=CC(C)(C)c1c2occc2c(O)c2ccc(=O)oc12,inactive: 0.737%,
COc1c(/C=C2\SC(=Nc3ccccc3Cl)NC2=O)cccc1[N+](=O)[O-],inactive: 1.86%,

Compound,"activity change, negative = inhibition",Potency
Cc1ccc(C(=O)N2c3ccccc3N(Cc3ccccc3)C(=O)C2(C)C)cc1,inactive: -7.47%,
CN(Cc1ccccc1)S(=O)(=O)c1ccc(OCC(=O)NCc2ccccn2)cc1,inactive: 0.458%,
COc1ccc(CNC(=O)C(c2ccco2)N(C(=O)c2snc(C(N)=O)c2N)c2cccc(OC)c2)cc1 (stereo unspecified),,active: 13.5 µM
CCN(CC)c1ccc(C(=O)OCC(=O)N2CCCC2)cc1,inactive: 2.17%,
Cc1ccc(S(=O)(=O)Nc2ccccc2N2CCCCC2)cc1,inactive: -4.31%,
O=c1[nH]c(-c2ccccc2F)nc2c1sc(=S)n2Cc1ccccc1,inactive: 0.33%,
O=C(/C=C/c1ccc(OCCCF)cc1)Nc1ccnc(-c2ccncc2)n1,inactive: -6.44%,
Cc1nn(-c2ccccc2)c(Cl)c1CN(C(=O)CCl)c1ccc(Cl)cc1,inactive: -4.49%,
C=C(C)c1cccc(C(C)(C)NC(=O)N(Cc2ccccc2)Cc2ccco2)c1,inactive: -2.7%,
C=CCN1C(=O)C(Cc2ccc(OC)cc2)S/C1=N/N=C/c1ccco1 (stereo unspecified),inactive: 0.197%,
COC(=O)c1ccc(-c2noc(CN(C)CCC3CCCCO3)n2)cc1 (stereo unspecified),inactive: -0.562%,
CCN(CC)S(=O)(=O)c1cccc(NC(=O)CCSc2ccc(Cl)cc2)c1,inactive: -2.51%,
O=C(N[C@H]1C/C=C\C(c2ccc(F)cc2)N(Cc2ccccc2)C(=O)C1)OCC1c2ccccc2-c2ccccc21 (stereo partly specified),inactive: -0.514%,
O=C(O)c1ccc(NC2=C/C(=N/S(=O)(=O)c3ccccc3)c3ccccc3C2=O)cc1,inactive: -0.0131%,
CCOC(=O)N1CCN(C(=O)c2ccc3c(c2)N=C(CC)c2cc(C)ccc2S3)CC1,inactive: -1.95%,
CC(C)(C)OC(=O)N[C@@H](Cc1ccccc1)c1nnc(S(=O)(=O)Cc2cccc(F)c2)o1,inactive: -1.91%,
COc1ccccc1CNS(=O)(=O)c1ccc(-n2cccn2)cc1,inactive: 1.53%,
CC(C)c1ccccc1OCCNC(=O)c1cccnc1,inactive: 2.01%,
CCOC(=O)Cn1c(=NC(=O)CSC(C)=O)sc2ccccc21,inactive: -4.14%,
COc1cc(OC)cc(-c2cc3cc4c(cc3cn2)OCO4)c1,inactive: -6.3%,
Cc1ccccc1-n1sc2cc(F)ccc2c1=O,inactive: -0.805%,
O=C(CN1C(=O)NC2(CCCCCC2)C1=O)N1CCC(Cc2ccccc2)CC1,inactive: -0.781%,
C=CCN(c1ccccc1)S(=O)(=O)c1ccc2[nH]cc(C(=O)NCCOC)c(=O)c2c1,inactive: 0.331%,
